Experimental data from publication PMC4336329 (PLoS ONE, 2015).
Hit rate of the full screen: of about 310,000 compounds, about 2,200 (0.71%) showed an effect of 50% or more. The effect is printed as a negative number. Some of the results follow.

Each compound was assayed against human ether-à-go-go-related gene (hERG) potassium channel (human, UniProt Q12809) (assay: primary screen, population patch clamp on CHO cells stably expressing hERG).
Chain of human ether-à-go-go-related gene (hERG) potassium channel (Q12809 whole entry, looked up): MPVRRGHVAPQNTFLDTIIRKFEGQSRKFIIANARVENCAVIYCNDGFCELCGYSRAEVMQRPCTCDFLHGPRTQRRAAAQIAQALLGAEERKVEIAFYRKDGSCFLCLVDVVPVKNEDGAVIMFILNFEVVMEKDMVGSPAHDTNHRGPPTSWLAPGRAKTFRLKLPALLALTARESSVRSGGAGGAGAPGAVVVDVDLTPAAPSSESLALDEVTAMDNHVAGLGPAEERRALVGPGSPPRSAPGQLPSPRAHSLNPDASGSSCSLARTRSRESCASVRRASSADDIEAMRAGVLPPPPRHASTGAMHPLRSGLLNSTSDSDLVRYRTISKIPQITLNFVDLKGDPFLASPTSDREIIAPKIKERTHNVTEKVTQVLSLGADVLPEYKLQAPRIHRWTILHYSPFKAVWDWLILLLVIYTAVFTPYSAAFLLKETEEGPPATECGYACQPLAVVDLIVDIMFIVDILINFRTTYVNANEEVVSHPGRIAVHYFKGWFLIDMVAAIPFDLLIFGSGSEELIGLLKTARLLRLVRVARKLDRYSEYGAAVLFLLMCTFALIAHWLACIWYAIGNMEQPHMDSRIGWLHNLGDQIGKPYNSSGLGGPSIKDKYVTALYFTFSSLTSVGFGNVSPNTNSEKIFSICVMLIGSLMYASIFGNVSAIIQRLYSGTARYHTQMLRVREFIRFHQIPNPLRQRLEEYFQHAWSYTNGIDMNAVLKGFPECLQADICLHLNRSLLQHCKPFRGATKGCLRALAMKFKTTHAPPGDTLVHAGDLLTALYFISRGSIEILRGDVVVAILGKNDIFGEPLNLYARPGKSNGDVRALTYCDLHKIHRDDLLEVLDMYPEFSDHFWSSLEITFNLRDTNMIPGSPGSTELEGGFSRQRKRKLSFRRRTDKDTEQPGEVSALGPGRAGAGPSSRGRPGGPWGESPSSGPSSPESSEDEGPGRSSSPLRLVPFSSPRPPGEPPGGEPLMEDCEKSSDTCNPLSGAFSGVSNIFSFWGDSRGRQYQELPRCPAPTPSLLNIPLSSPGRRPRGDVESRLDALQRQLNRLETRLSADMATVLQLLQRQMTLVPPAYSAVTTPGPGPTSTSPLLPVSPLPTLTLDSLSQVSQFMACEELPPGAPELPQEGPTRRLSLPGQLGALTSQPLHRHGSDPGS

SMILES | hERG current change (%, negative = inhibition) at 1uM [%]
COc1ccc(/C(C)=N/NC(=O)CNC(=O)/C=C\c2ccccc2OC)c(OC)c1 | 10.9
N#CCCN(Cc1cccnc1)C(=S)NC(=O)c1ccc(S(=O)(=O)N2CCCC2)cc1 | 12.1
CC(C)CN(c1ccccc1)S(=O)(=O)c1nnc(NC(=O)c2ccco2)s1 | 10.4
O=C(Nc1sc2c(c1C(=O)O)CCCC2)c1ccc(Cl)cc1 | 15.8
Cc1ccc(S(=O)(=O)N(C)C)cc1NC(=O)C(C)NC(C)c1cccs1 (centres unmarked) | 4.7
COc1cccc(C(=O)Nc2cc3c(cc2Cl)OCCCO3)c1 | 9.18
COCc1c(C(=O)OCC(=O)N(C)C2CCS(=O)(=O)C2)oc2ccccc12 (centres unmarked) | 8.43
CN(C)c1ccc(NC(=S)c2ccc3ccccc3n2)cc1 | 6.42
C/C(=N\NC(=S)Nc1ccc(F)cc1)C1CC1 | -8.71
Cc1ccc(C(=O)N2CC(=O)Nc3ccc(F)cc3C2c2ccccc2)cc1[N+](=O)[O-] (centres unmarked) | 4.83
CCC(C)Nc1nc(-c2ccc3c(c2)NC(=O)CO3)cs1 (centres unmarked) | 17.5
COc1cc2ccccc2cc1C(=O)Nc1ccc(NC(=O)c2cccs2)cc1 | 16.6
Nc1c(C(=O)Nc2ccc(S(=O)(=O)N3CCCC3)cc2)sc2nc3cc4c(cc3cc12)CCC4 | 0.301
COC(=O)COc1ccc(S(=O)(=O)Nc2ccc(C(N)=O)cc2)cc1 | 13.4
CC(=O)c1cnn(-c2cc(Oc3ccccc3C)ncn2)c1C | 4.71
O=C(CN1CCN(CC(=O)Nc2ccc(OCc3ccccc3)cc2)CC1)Nc1ccc(F)cc1 | -81.5
CN(Cc1ccccc1)C(=S)Nc1ccc(OC(F)F)cc1 | 11.1
O=C(COc1ccc(Cl)cc1Cl)NNC(=S)Nc1ccc(F)cc1 | -2.84
Cc1c(N(C(=O)c2cc(=O)[nH]c3ccccc23)C(C)C)c(=O)n(-c2ccccc2)n1C | -2.42

SMILES | hERG current change (%, negative = inhibition) at 1uM [%]
O=C(CN1CCN(S(=O)(=O)c2ccc(F)cc2)CC1)Nc1ccc(Cl)cn1 | -31
Nc1cc(S(=O)(=O)Nc2cc(Cl)ccc2Cl)ccc1N1CCOCC1 | 8.29
COc1ccc(C(=O)NCC(C)(C)SCc2c(C)cc(C)cc2C)cc1 | 15.5
CCOc1ccc(-c2cccc(NC(=O)c3ccc(Br)o3)c2)nn1 | 16.1
COc1ccc2ccccc2c1/C=N/Nc1cccc(C(=O)O)c1 | 9.85
COc1ccc(/C(=N\O)c2ncc(C(F)(F)F)cc2Cl)cc1 | -4.22
CCCCCC(=O)Nc1ccc(N2CCN(C(=O)CCC)CC2)cc1 | -2.55
COC1=CC(=O)OC12CCCCC2 | 12.2
COc1cc(C(=O)OC2CCOC2=O)cc(Cl)c1OC (centres unmarked) | 15.3
O=S(=O)(NCc1ccccc1)c1ccc(Br)s1 | 6.16
O=C(Nc1cc(-c2ccccc2)[nH]n1)c1ccccc1 | 16.5
CCCCCOC(=O)Nc1nnc(CCCCC)s1 | -9.34
CCOC(=O)C1(CCCc2ccccc2)CCN(C(=O)[C@@H]2C[C@@H](C)NC(=S)N2)CC1 | 1.17
CSC(=NCc1ccco1)NC#N | 0.417
Cc1ccnc(NS(=O)(=O)c2ccc(NS(=O)(=O)Cc3ccccc3)cc2)n1 | 5.77
COc1ccc(CSc2nnnn2-c2ccccc2)cc1 | 14.1
COc1cc(C)c(S(=O)(=O)N2CCN(C)CC2)cc1C | 6.55
O=C(O)c1ccc(-n2cccc2/C=C2/NC(=O)N(c3ccccc3)C2=O)cc1 | 5.53
CCOc1ccc(S(=O)(=O)Nc2cc(SCC(=O)O)c(O)c3ccccc23)cc1 | 6.39

SMILES | hERG current change (%, negative = inhibition) at 1uM [%]
Cc1sc2nc(SCC(=O)Nc3ccc(S(=O)(=O)NCCCC(=O)O)cc3)[nH]c(=O)c2c1C | 13.5
O=C(CSc1nnnn1-c1ccc(O)cc1)NC1CCCCC1 | 10.4
Cc1noc(C)c1S(=O)(=O)N1CCC(C(=O)N2CCN(C(=O)c3ccco3)CC2)CC1 | 14.2
COC(=O)C[C@H]1c2ccccc2S(=O)(=O)N1Cc1ccc(OC)cc1 | 14
CCC(C(=O)Nc1ccccc1F)n1nc(C)c2c(C)n(-c3ccccc3)nc2c1=O (centres unmarked) | 30.3
CCOc1ccc2nc(NCCNC(=O)C(C)(C)C)c(C)cc2c1 | -2.85
COCCNC(=S)N/N=C/c1ccc(-c2ccc([N+](=O)[O-])cc2)o1 | 13.9
CCCn1ncc(CN2CCCC(C(=O)c3cccc(OC(C)C)c3)C2)c1C (centres unmarked) | -14.6
CCOc1ccc(NC(=O)CC2C(=O)N(CC)C(=S)N2NC(=O)c2ccncc2)cc1 (centres unmarked) | 14.2
COc1ccc(Cl)cc1S(=O)(=O)N1CCN=C1Cc1ccccc1 | 6.33
CN(C)CCCNc1oc(-c2ccccc2)nc1C#N | 10.6
CCN(CC)CCN(Cc1cc2cc3c(cc2[nH]c1=O)OCCO3)C(=S)NCC(C)C | 9.1
CCN1CCN(c2cc(C)c3cc(NC(=O)c4ccc(Br)o4)ccc3n2)CC1 | -1.36
COc1ccc(CNCc2ccc(C)cc2)c(OC)c1.O=C(O)C(=O)O | 6.06
CC(C)(C)Nc1nc(OCC(F)(F)F)nc(OCC(F)(F)F)n1 | -0.747
Cc1ccc(NC(=O)CN2CCc3cc4c(cc3C2)OCCCO4)cc1C | 12.1
O=C(Nc1ccc2c(c1)OCO2)c1c[nH]c(=O)n(-c2ccc(F)cc2)c1=O | 19.9
CCOC(=O)/C(=C/c1ccc(F)cc1)NC(C)=O | 2.01
